According to PubChem BioAssay AID504333 (National Center for Advancing Translational Sciences (NCATS), 2011):
Hit rate of the full screen: of about 360,000 compounds, about 16,000 (4.4%) were called active. This list was built around the results that the source calls inconclusive (neither active nor inactive); the mix of calls is not that of the screen. Calls come from the whole dose curve; as a rule, active = well fitted inhibition curve with a large enough effect; inconclusive = small, poorly fitted or top-dose-only effect; inactive = no such curve, though single readings can be large or run the other way. Potencies beside an inconclusive call are fits to weak or partial responses and may not hold up.

Biological target: Bromodomain adjacent to zinc finger domain protein 2B (Homo sapiens) (UniProt Q9UIF8)
Assay: qHTS Assay for Inhibitors of BAZ2B; note: nearly all actives have a fitted effect of over 60% in size
Conditions: AlphaScreen BAZ2B-H3K14Ac peptide displacement; series mostly up to 114 µM
Procedure, shortened: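 BAZ2B 50 nM plus b-H3(5-23)K14Ac 50 nM, PBS pH 7.4/0.01% Tween-20, 30 min RT; compound added (max 110 uM), 30 min RT; streptavidin donor/Ni-chelate acceptor beads 10 ug/mL final, 20 min dark; AlphaScreen read.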
Potency is the fitted concentration of half-maximal effect; tags give direction and shape of the fitted curve.

UniProt Q9UIF8, sequence (Q9UIF8 whole entry, looked up, the tested form may be a part): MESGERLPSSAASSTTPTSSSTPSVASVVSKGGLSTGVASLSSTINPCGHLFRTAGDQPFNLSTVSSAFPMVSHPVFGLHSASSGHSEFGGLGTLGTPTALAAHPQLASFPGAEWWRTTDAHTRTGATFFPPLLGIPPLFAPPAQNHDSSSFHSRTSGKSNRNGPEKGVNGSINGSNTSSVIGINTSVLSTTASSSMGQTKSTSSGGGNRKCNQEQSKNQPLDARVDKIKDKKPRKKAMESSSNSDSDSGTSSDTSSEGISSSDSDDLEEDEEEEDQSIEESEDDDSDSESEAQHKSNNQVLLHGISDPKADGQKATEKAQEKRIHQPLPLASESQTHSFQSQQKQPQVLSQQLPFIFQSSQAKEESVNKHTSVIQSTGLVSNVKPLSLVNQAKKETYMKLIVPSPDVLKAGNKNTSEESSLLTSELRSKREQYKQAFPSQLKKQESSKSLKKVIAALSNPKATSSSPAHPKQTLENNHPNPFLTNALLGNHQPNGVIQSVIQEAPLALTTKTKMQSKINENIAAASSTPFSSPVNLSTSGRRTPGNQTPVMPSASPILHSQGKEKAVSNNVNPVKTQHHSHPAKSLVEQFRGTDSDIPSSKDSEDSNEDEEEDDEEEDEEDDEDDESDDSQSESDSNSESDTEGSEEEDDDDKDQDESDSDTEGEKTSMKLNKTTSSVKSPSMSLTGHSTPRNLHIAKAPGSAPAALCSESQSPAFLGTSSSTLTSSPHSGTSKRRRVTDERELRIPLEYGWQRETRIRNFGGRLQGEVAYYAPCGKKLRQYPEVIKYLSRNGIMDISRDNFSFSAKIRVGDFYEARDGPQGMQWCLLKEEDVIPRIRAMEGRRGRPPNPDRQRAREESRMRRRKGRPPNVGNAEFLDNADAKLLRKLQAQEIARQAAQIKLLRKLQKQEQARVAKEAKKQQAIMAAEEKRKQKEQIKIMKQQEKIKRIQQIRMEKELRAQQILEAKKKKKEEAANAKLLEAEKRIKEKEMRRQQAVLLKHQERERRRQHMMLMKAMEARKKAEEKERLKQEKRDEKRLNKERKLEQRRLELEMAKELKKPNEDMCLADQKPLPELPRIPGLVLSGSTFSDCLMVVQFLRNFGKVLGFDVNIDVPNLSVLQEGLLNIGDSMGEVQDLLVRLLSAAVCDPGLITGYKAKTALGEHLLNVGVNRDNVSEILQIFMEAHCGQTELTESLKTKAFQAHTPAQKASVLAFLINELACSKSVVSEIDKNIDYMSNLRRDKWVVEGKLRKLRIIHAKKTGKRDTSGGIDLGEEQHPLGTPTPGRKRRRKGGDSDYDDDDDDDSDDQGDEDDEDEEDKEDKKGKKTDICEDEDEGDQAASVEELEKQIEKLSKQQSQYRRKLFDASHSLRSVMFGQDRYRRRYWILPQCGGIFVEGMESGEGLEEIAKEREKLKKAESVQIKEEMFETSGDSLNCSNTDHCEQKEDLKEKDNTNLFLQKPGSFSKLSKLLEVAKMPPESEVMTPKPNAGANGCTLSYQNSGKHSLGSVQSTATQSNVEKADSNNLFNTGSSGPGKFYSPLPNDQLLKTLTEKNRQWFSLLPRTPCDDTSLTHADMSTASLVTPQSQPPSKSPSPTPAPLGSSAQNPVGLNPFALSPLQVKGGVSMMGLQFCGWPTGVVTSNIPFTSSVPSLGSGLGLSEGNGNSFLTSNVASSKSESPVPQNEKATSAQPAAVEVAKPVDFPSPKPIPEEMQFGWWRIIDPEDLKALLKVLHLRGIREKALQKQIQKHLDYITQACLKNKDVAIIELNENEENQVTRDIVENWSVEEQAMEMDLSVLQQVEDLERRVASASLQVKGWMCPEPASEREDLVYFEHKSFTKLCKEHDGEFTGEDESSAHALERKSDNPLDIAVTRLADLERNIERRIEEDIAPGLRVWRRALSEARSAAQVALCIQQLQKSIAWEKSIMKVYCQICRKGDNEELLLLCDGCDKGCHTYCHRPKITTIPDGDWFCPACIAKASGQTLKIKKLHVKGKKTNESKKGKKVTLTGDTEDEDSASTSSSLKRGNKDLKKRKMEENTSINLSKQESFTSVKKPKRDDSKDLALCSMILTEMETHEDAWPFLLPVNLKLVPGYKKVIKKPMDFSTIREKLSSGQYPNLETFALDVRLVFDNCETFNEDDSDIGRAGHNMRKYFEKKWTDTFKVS

SMILES | Potency
COc1ccc(N2CCN(CC(=O)Nc3ccc(C)c(C)c3)CC2)cc1 | inconclusive: 35.5 µM [inhibitor, full curve, poor fit]
O=C(NCc1ccccc1)C(c1cccs1)N(C(=O)c1csnn1)C1CC1 (stereo not given) | inactive
O=C(CSc1nnnn1-c1ccccc1)NC(=O)NCc1ccco1 | inconclusive: 89.1 µM [inhibitor, single point]
CC(=O)C1C(=O)c2c(cccc2[N+](=O)[O-])C1=Nc1ccccc1C (stereo not given) | inconclusive: 0.794 µM [inhibitor, full curve]
CCN(CC)S(=O)(=O)c1cccc(C(=O)NC(Cc2c[nH]c3ccccc23)c2nnc3n2CCCCC3)c1 (stereo not given) | inconclusive: 79.4 µM [inhibitor, partial curve]
CCN(CC(=O)NCc1ccc(Cl)cc1)C(=O)COc1ccc(Cl)cc1Br | inconclusive: 39.8 µM [inhibitor, single point]
CC(=O)c1c(C)[nH]c(C(=O)CSc2nnc(-c3ccco3)n2Cc2ccccc2)c1C | active: 50.1 µM
CCCOc1ccc(C(=O)NCCC(=O)NCCCC(=O)O)cc1 | inactive
COc1ccc2cc1Oc1ccc(cc1)C[C@H]1c3c(cc4c(c3Oc3cc5c(cc3OC)CCN(C)[C@@H]5C2)OCO4)CCN1C | inactive
Cc1cc(NC(=O)C23CC4CC(CC(C4)C2)C3)n[nH]1 | inconclusive: 89.1 µM [inhibitor, single point]
CCOC(=O)c1c2c([nH]c(=S)c1C#N)CCCC2 | inconclusive: 79.4 µM [inhibitor, single point]
Cn1c(-c2sccc2OCc2ccccc2)n[nH]c1=S | active: 56.2 µM
O=C(N/N=C/c1cc(Cl)cc(Cl)c1O)c1ccncc1 | active: 10 µM
O=C(NCc1ccco1)C1CCCN(c2nnc(-n3cccc3)s2)C1 (stereo not given) | inconclusive: 56.2 µM [inhibitor, partial curve]
CN=c1scc(-c2cc(OC)ccc2OC)n1/N=C/c1c(C)[nH]c2ccccc12 | active: 35.5 µM
Cc1cccc(NC(=O)/C(=C\c2ccc([N+](=O)[O-])o2)NC(=O)c2ccc(Cl)cc2)c1 | active: 50.1 µM
CCOC(=O)N1CCN(C/C(Cl)=C/c2ccccc2)CC1 | inconclusive: 89.1 µM [inhibitor, single point]
COP(=O)(OC)c1nc(-c2ccc(C)cc2)oc1N1CCCCC1 | inconclusive: 50.1 µM [inhibitor, partial curve]
CCOC(=O)COc1ccc(CC)cc1C(=O)c1ccn2nc(-c3ccc(C)cc3)cc2n1 | inactive
Cc1ccccc1CSc1nc2c([nH]c3ccccc32)c(=O)n1-c1ccccc1 | inconclusive: 89.1 µM [inhibitor, single point]
Cc1cc(C(=O)COC(=O)CCC(=O)c2ccc3c(c2)OCCO3)c(C)n1Cc1ccco1 | inconclusive: 44.7 µM [inhibitor, partial curve]
N#C/C(=C\c1ccc(OCc2ccc(C(=O)O)cc2)cc1)C(=O)NCc1ccccc1 | inconclusive: 89.1 µM [inhibitor, single point]
CC(CCc1ccccc1)NCC(O)c1cccc([N+](=O)[O-])c1 (stereo not given) | inconclusive: 89.1 µM [inhibitor, single point]

SMILES | Potency
Cc1c(NC(=O)NC(=O)c2ccc(F)cc2)c(=O)n(-c2ccccc2)n1C | inactive
COc1cccc(CNC(=O)C2CCCN(S(=O)(=O)c3ccc4c(ccn4C)c3)C2)c1OC (stereo not given) | inactive
CCc1ccc(CCC(=O)Nc2ccc(C(C)=O)cc2)o1 | inconclusive: 56.2 µM [inhibitor, partial curve]
CCCOc1ccc(C(=O)C(c2ccccc2)N2CCOCC2)cc1 (stereo not given) | inconclusive: 100 µM [inhibitor, single point]
COc1ccc(N2CCN(C(=O)C3CCC(Cn4c(=S)[nH]c5ccccc5c4=O)CC3)CC2)cc1 (stereo not given) | inconclusive: 7.08 µM [inhibitor, full curve, poor fit]
CCN(c1ccccc1)S(=O)(=O)c1ccc(C(=O)Nc2nnc(CSC)o2)cc1 | inconclusive: 89.1 µM [inhibitor, single point]
Cn1c(=O)[nH]c(=O)c2c1nc(Br)n2C/C=N/Nc1ccccc1 | inconclusive: 56.2 µM [inhibitor, partial curve]
Cc1cc(C)cc(N=c2c([N+](=O)[O-])nn(-c3ccc(Cl)cc3)n2O)c1 | inconclusive: 2.82 µM [inhibitor, full curve]
Cc1ccc(OCC(=O)N(Cc2ccc(N(C)C)cc2)CC2CCCO2)cc1C (stereo not given) | active: 31.6 µM
COc1ccc(S(=O)(=O)Nc2ccc(-n3cnnn3)cc2)cc1[N+](=O)[O-] | inactive
Cc1cccc(NC(=O)CSc2ccc(-c3ccccn3)nn2)c1C | active: 2.82 µM
CCOc1ccc(CNCCN2CCCC2)cc1 | active: 56.2 µM
Cc1cccc2c1-c1sc(C(=O)Nc3ccccc3N3CCN(C)CC3)cc1CO2 | active: 44.7 µM
N#CC1=C(N)n2c(s/c(=C\c3ccco3)c2=O)=C(C#N)C1c1ccco1 (stereo not given) | inconclusive: 89.1 µM [inhibitor, single point]
CCc1c(C)nc(SCC(=O)N2CC(C)OC(C)C2)[nH]c1=O (stereo not given) | inactive
CCOc1ccc(C(=O)NCC(C)NC(=O)c2ccc(OCC)cc2)cc1 (stereo not given) | inconclusive: 89.1 µM [inhibitor, single point]
COc1ccc(NC(=O)CN(C)CC(=O)Nc2ccccc2SC)cc1 | active: 20 µM
Nc1[nH][nH]c(=O)c1N=Nc1ccc2c(c1)OCO2 | inconclusive: 56.2 µM [inhibitor, partial curve]
CCc1nc2ccc(Cc3ccc4nc(CC)[nH]c4c3)cc2[nH]1 | inactive
O=C1Nc2cc(C(=O)NCCN3CCCCCC3)ccc2S/C1=C\c1ccccc1 | inconclusive: 12.6 µM [inhibitor, partial curve]
C[C@@H](NC(=O)c1cc2c([nH]c3ccccc32)c(-c2ccccc2)n1)C(=O)O | inconclusive: 79.4 µM [inhibitor, single point]
CCOC(=O)C(C)Sc1nc2c(c(-c3cccs3)c1C#N)CCC2 (stereo not given) | inactive
